Reference: paper PMC4792161, “A novel pyrazole derivative protects from ovariectomy-induced osteoporosis through the inhibition of NADPH oxidase” (Scientific Reports, 2016)
Structures can show the parent of a compound that is named as a salt.

Tested on: BMMs
Conditions: M-CSF and RANKL

CCCc1c(-c2ccccc2)nn(-c2ccccn2)c1O [Ewha-18278, 3-phenyl-1-(pyridin-2-yl)-4-propyl-1H-5-hydroxypyrazole HCl]
expression levels of NFATc1 and Atp6v0d2: decreased
